The whole screen tested about 48,000 compounds, of which about 120 (0.25%) were called active. Not shown: some 4% with an inconclusive outcome. Calls follow the shape of the dose curve; as a rule, active = well fitted activation curve with a large enough effect; inconclusive = small, poorly fitted or top-dose-only effect, or another doubt; inactive = no such curve, though single readings can be large or run the other way. This is one part of the list.
Assay: Primary qHTS for Identification of Small Molecule Activators of Huntingtin-Antisense Promoter Activity; also: nearly all actives have a fitted effect of over 55% in size
Conditions: HEK293 HTT-AS promoter firefly luciferase reporter (activity 0% = vehicle and -100% = no light), 24 h; series mostly up to 57.5 µM; activity change, positive = activation: at the top concentration
Procedure, shortened: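 HEK293 luciferase promoter-reporter cells (2,500/well) plated 24 h, then compounds added at up to 57.5 uM final for 24 h at 37 °C. Firefly luminescence by Dual-Glo, normalized to vehicle (0%) and zero RLU (-100%).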

SMILES	activity change, positive = activation
CCOC(=O)c1c(C)[nH]c(C)c1S(=O)(=O)N1CCCC(C(=O)NCc2cccc(C)c2)C1 (configuration not stated)	inactive: 2.98%
CCN(CC)CCNC(=O)C1CCN(c2nn3cc(-c4ccc(F)cc4)nc3s2)CC1	inactive: 7.1%
Cc1cccn2c(=O)c(C(=O)NCc3ccc(F)cc3)c(O)nc12	inactive: -13.2%
O=c1cc(-c2ccccc2)nc(SCc2nc(-c3ccccc3Cl)no2)[nH]1	inactive: -7.03%
FC1(F)C(F)(F)C(F)(F)C2(F)C(F)(F)C(F)(F)C(F)(F)C(F)(F)C2(F)C1(F)F (configuration not stated)	inactive: 1.29%
CCOc1cc(C(=O)Nc2cc3c(cc2N2CCOCC2)n(C)c(=O)n3C)cc(OCC)c1OCC	inactive: -6.91%
CCCOc1cccc(C(=O)Nc2cccc3cccnc23)c1	inactive: 28.6%
CCN(C(=O)c1nn(-c2ccc(OC)c(Cl)c2)c(=O)c2c1c1ccccc1n2C)c1cccc(C(F)(F)F)c1	inactive: -22.6%
O=C(CN1C(=O)COc2ccc(Cl)cc21)Nc1ccc(F)cc1	inactive: -22.6%
O=c1[nH]cnc2c1ncn2[C@H]1CC[C@@H](CO)O1	inactive: -5.74%
COc1ccc(-c2nc3ccc(NS(=O)(=O)c4ccc(C)cc4)cc3o2)cc1	inactive: -34.7%
CC(C)OCCCNC(=O)c1ccc(CSc2nc3cccnc3n2Cc2ccccc2)cc1	inactive: -29.8%
O=C(OCc1cc(=O)n2nc(-c3cccs3)sc2n1)c1ccc(Cl)cc1	inactive: 6.9%
Cc1ccc(Cn2c(C(=O)NCc3ccccc3Cl)cc3sccc32)cc1	inactive: -21%
CCC1=C(c2ccc(C)cc2)S(=O)(=O)N=C1N1CCC(C(=O)Nc2ccccc2F)CC1	inactive: -28.3%
Cc1ccc(NC(=O)Cn2ncn3c(cc4ccccc43)c2=O)cc1F	inactive: -14.9%
Cc1nc2sccn2c(=O)c1S(=O)(=O)Nc1ccc(N2CCOCC2)c(Cl)c1	inactive: -27.4%
COC(=O)c1c(SCC(=O)Nc2cc(OC)cc(OC)c2)[nH]c2ccc(C)cc2c1=O	inactive: -6.48%
O=C(CCC(=O)N1CC2CCCN2c2ccccc21)NCc1ccc(Cl)cc1 (configuration not stated)	inactive: -26.8%
CCC1CCC(C(=O)NC(C(=O)Nc2cccc(OC)c2)C(C)C)CC1 (configuration not stated)	inactive: 0.288%
CCOc1ccc(CNCc2c(C(=O)O)c(C)n(Cc3cccc(OC)c3)c2C)cc1OC	inactive: -19.4%
Cc1cc(CN2CCN(c3ccccc3F)CC2)cs1	inactive: -0.112%
Cc1nc2nc(CNC(=O)OC(C)(C)C)nn2c(C)c1CCC(=O)NCc1ccc(F)cc1	inactive: -10.1%
CCc1ccc(C(=O)c2cn(CC(=O)Nc3ccc4c(c3)OCO4)c3ccc(OC)cc3c2=O)cc1	inactive: -23.7%
Cn1c(C(=O)Nc2cccc(C(F)(F)F)c2)cc2c(=O)n3ccccc3nc21	inactive: -12.9%
CCOc1ccc(NC(=O)C2CCC(CNS(=O)(=O)c3ccc(Br)s3)CC2)cc1 (configuration not stated)	inactive: -18.3%
COc1ccc(OC)c(CNC(=O)C(C)n2c(C)c3cnn(-c4ccccc4)c(=O)c3c2C)c1 (configuration not stated)	inactive: -21%
